Assay results taken from the supplement of paper PMC11316812.
± gives the standard deviation of the averaged measurements.

Columns and labels:
MCF7 = assay: percentage of EdU-negative (G0-arrested) nuclei per well, 72 h; reference: the tested protein was the secreted form or ectodomain; higher = more G0 arrest
hTERT-HMEC = assay: percentage of EdU-negative (G0-arrested) nuclei per well, 72 h; higher = more G0 arrest; conditions: reference: the tested protein was the secreted form or ectodomain
[1] = protein concentration 0.0158725 µM
[2] = protein concentration 0.158725 µM
[3] = protein concentration 0.0151429 µM
[4] = protein concentration 0.151429 µM
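Further: secreted proteins added to cultured cells, EdU pulse at the end, nuclei found by Hoechst imaging, EdU status from nuclear versus surrounding ring intensity ratio, PBS as neutral control.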

“MGPGVLLLLLVATAWHGQG[about 500 residues not written out]VVVACMSIMALLLLLLLLLLYKYKQKPKYQVRWKIIESYEGNSYTFIDPTQLPYNEKWEFPRNNLQFGKTLGAGAFGKVVEATAFGLGKEDAVLKVAVKMLKSTAHADEKEALMSELKIMSHLGQHENIVNLLGACTHGGPVLVITEYCCYGDLLNFLRRKAEAMLGPSLSPGQDPEGGVDYKNIHLEKKYVRRDSGFSSQGVDTYVEMRPVSTSSNDSFSEQDLDKEDGRPLELRDLLHFSSQVAQGMAFLASKNCIHRDVAARNVLLTNGHVAKIGDFGLARDIMNDSNYIVKGNARLPVKWMAPESIFDCVYTVQSDVWSYGILLWEIFSLGLNPYPGILVNSKFYKLVKDGYQMAQPAFAPKNIYSIMQACWALEPTHRPTFQQICSFLQEQAQEDRRERDYTNLPSSSRSGGSGSSSSELEEESSSEHLTCCEQGDIAQPLLQPNNYQFC [[…]]” was tested, and the “percentage of EdU-negative” value (MCF7; [1]) was 26 ± 0.85%, the “percentage of EdU-negative” value (MCF7; [2]) was 28.9 ± 1.2% and the “percentage of EdU-negative” value (hTERT-HMEC; [1]) was 5.93 ± 0.54%. For the same substance, the “percentage of EdU-negative” value (hTERT-HMEC; [2]) was 6.01 ± 0.39%.

With “MDKFWWHAAWGLCLVPLSLA[about 200 residues not written out]ATTLMSTSATATETATKRQETWDWFSWLFLPSESKNHLHTTTQMAGTSSNTISAGWEPNEENEDERDRHLSFSGSGIDDDEDFISSTISTTPRAFDHTKQNQDWTQWNPSHSNPEVLLQTTTRMTDVDRNGTTAYEGNWNPEAHPPLIHHEHHEEEETPHSTSTIQATPSSTTEETATQKEQWFGNRWHEGYRQTPKEDSHSTTGTAAASAHTSHPMQGRTTPSPEDSSWTDFFNPISHPMGRGHQAGRRMDMDSSHSITLQPTANPNTGLVEDLDRTGPLSMTTQQSNSQSFSTSHEGLEEDKDHPTTSTLTSSNRNDVTGGRRDPNHSEGSTTLLEGYTSHYPHTKESRTFIPVTSAKTGSFGVTAVTVGDSNSNVNRSLSGDQDTFHPSGGSHTTHGSESDGHSHGSQEGGANTTSGPIRTPQIPEWLIILASLLALALILAVCIAVNSRRRCGQKKKLVINSGNGAVEDRKPSGLNGEASKSQEMVHLVNKESSETPDQFMTADETRNLQNVDMKIGV [[…]]” the “percentage of EdU-negative” value (MCF7; [3]) was 22.8 ± 1.7%, the “percentage of EdU-negative” value (MCF7; [4]) was 26 ± 1.8% and the “percentage of EdU-negative” value (hTERT-HMEC; [3]) was 5.11 ± 0.22%. For the same substance, the “percentage of EdU-negative” value (hTERT-HMEC; [4]) was 8.044 ± 0.08%.
